PMC4336329 (PLoS ONE, 2015)
About 14,000 (4.5%) of roughly 310,000 compounds showed an effect of 50% or more. The effect is printed as a negative number. The list shows a part of the results.

These molecules were tested against human ether-à-go-go-related gene (hERG) potassium channel (human, UniProt Q12809) (assay: primary screen, population patch clamp on CHO cells stably expressing hERG).
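Note: peak tail current of the secondary pulse compared with the same well before compound.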

Sequence of human ether-à-go-go-related gene (hERG) potassium channel (Q12809 whole entry, looked up): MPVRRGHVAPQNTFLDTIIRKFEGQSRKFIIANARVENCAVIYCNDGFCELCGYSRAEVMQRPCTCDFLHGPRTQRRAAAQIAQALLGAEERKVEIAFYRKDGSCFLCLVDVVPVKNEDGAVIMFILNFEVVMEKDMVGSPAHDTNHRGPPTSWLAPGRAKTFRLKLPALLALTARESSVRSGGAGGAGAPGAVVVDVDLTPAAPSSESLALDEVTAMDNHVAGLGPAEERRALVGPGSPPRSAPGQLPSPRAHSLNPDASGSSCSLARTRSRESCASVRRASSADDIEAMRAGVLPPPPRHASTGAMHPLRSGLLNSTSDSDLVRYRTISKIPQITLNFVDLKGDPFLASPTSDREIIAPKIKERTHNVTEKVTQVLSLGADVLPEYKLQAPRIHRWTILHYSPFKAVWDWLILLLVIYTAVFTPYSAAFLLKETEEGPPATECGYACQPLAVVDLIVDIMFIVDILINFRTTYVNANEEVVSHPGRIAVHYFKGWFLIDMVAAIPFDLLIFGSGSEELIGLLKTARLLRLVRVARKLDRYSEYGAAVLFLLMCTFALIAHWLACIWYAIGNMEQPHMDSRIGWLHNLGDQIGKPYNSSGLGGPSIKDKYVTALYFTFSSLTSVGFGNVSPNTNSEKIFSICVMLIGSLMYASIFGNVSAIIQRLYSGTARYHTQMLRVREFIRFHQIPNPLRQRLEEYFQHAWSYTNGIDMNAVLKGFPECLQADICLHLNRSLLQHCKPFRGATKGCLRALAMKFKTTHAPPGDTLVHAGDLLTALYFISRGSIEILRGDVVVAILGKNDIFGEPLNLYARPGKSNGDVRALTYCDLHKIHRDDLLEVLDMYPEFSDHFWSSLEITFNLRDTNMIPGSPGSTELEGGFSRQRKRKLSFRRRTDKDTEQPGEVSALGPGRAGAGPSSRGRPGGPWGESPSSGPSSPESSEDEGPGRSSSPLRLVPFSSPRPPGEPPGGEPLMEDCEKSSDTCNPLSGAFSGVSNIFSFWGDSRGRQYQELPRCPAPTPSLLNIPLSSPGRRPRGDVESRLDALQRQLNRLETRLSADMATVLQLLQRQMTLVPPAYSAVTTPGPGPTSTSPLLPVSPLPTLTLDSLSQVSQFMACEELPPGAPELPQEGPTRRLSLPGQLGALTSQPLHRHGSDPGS

| SMILES | hERG current change (%, negative = inhibition) at 10uM [%] |
| --- | --- |
| COc1ccc(NC(=O)c2cn(-c3ccccc3)nc2SC)cc1 | -8.55 |
| O=C1CNC(=S)N1CCCc1ccccc1 | -2.23 |
| O=C(O)CCC(=O)Nc1ccccc1C(=O)N1CCN(c2ccc(Cl)cc2)CC1 | 11.7 |
| COC(=O)c1ccc(CS(=O)(=O)c2ccc(F)cc2)o1 | 18.5 |
| CCN(CC)CCSc1nc(O)c(-c2ccccc2)c(=O)[nH]1.Cl | 6.19 |
| Cc1ccc(NC(=O)N2C3CCCC2CC(NC(=O)C(C)(C)C)C3)cc1 (centres unmarked) | 10.1 |
| CCOc1ccc(C(=O)Nc2cccc3nsnc23)cc1[N+](=O)[O-] | 5.23 |
| COCCNCc1ccc(C(C)C)cc1.Cl | 14 |
| Cc1cc(C(=O)NNC(=S)NCC(C)C)cs1 | -9.13 |
| C[n+]1cccc(C2C(C#N)=C(N)Oc3c2ccc2ccccc32)c1.[I-] (centres unmarked) | 13.7 |
| O=C(Nc1cccc(Cl)c1)OCc1cn(-c2ccc(Cl)cc2)nn1 | 1.69 |
| N#CCSc1nc(-c2ccccc2)c2cc(Cl)ccc2n1 | 1.74 |
| CC(C)N(CCc1ccncc1)C(=S)Nc1ccc(F)c(Cl)c1 | -71.7 |
| CC1(C)S[C@@H]2[C@H](NC(=O)C(NC(=O)N3CCNC3=O)c3ccccc3)C(=O)N2[C@H]1C(=O)O (some centres unmarked) | 14.2 |
| O=C(CN1C(=O)CCC1=O)Nc1cccc(NC(=O)CN2C(=O)CCC2=O)c1 | 20.2 |
| CCCC(C)C(=O)Nc1cc([N+](=O)[O-])ccc1F (centres unmarked) | -0.69 |
| Cc1ccc(C(=O)C2CCNCC2)cc1.Cl | -1.73 |
| COCCn1c(SCC(=O)c2c(N)n(C3CC3)c(=O)[nH]c2=O)nnc1-c1cccc(C)c1 | 10.3 |
| Fc1cc(NC(=S)NCc2ccc(CNC(=S)Nc3ccc(Cl)c(F)c3)cc2)ccc1Cl | -2.24 |
| O=C(CNc1ccc(Cl)cc1)NNC(=S)NCc1ccccc1 | 14.2 |
| CC(C)CC(NC(=O)C1CCC(C)CC1)C(=O)NCc1ccco1 (centres unmarked) | -24.6 |
| CC(NCC1COc2ccccc2O1)C(=O)NCc1ccccc1.O=C(O)C(=O)O (centres unmarked) | -18.1 |
| CNn1cnc2ccsc2c1=O | 16.8 |

| SMILES | hERG current change (%, negative = inhibition) at 10uM [%] |
| --- | --- |
| COCC(=O)N/N=C\c1cccc(OC)c1OC/C=C/c1ccccc1 | -15.6 |
| COc1cc(OC)c(OC)cc1/C=C/C(=O)c1ccc(NS(=O)(=O)c2ccc(C)cc2)cc1 | -0.00772 |
| CC(=O)OC(C)(C)/C=C/C(=O)C(C)(O)C1[C@H](O)C[C@@]2(C)C3CC=C4C(CC[C@@H](O)C4(C)C)[C@]3(CO)C(=O)C[C@]12C (some centres unmarked) | 25.8 |
| COc1ccccc1Nc1c([N+](=O)[O-])cc(C)cc1[N+](=O)[O-] | 22.7 |
| CCCCCC(=O)Nc1ccc(N2CCOCC2)c(S(=O)(=O)Nc2ccc(OC)cc2)c1 | -28.4 |
| COc1ccc(C(=O)NC2CC2)cc1OC1CCN(Cc2cc(C)c(C)cc2C)CC1 | -83.1 |
| COc1ccc(NS(=O)(=O)c2cccc(C(=O)N/N=C/c3ccccn3)c2)cc1 | 7.1 |
| CC1C(=O)N2CCCc3cc(S(=O)(=O)N4CCCCC4)cc1c32 (centres unmarked) | 6.43 |
| Cc1ccc(/C=N/NC(=O)c2ccc(C(=O)N/N=C/c3ccc(C)s3)o2)s1 | 8.91 |
| COc1ccc(S(=O)(=O)N2CCOCC2)cc1NC(=O)CSc1nnc(N)s1 | -17.2 |
| NS(=O)(=O)c1ccc(CNC(=O)Cc2ccc(S(=O)(=O)N3CCOCC3)s2)cc1 | -1.38 |
| CC1CC(C)CN(S(=O)(=O)c2ccc(NC(=O)C3CC(=O)N(Cc4ccccc4)C3)cc2)C1 (centres unmarked) | 17.3 |
| O=C(NC(N1CCOCC1)C(Cl)(Cl)Cl)c1ccc(Br)cc1 (centres unmarked) | -25.2 |
| CC(=O)N1CC(C)Oc2ccc(S(=O)(=O)Nc3ccc(Cl)cn3)cc21 (centres unmarked) | 3.04 |
| CCc1ccc(NC(=O)Nc2cnccn2)cc1 | 6.01 |
| COc1cc2[nH]c(=O)n(C3CCCCC3)c(=O)c2cc1OC | 17.9 |
| CCOc1ccc(-c2cc(N3C(=O)Nc4ccccc4N3O)n[nH]2)cc1 | 20.1 |
| O=C(CNCCO)Nc1ccc(F)c(Cl)c1 | 11.1 |
| CCCCOc1ccc(N2C(N)=NC(N)=NC23CCCCC3)cc1.Cl | 3.14 |
| CCOC(=O)c1nn(-c2ccc(Cl)cc2)c2nnc(Cc3ccc(C)cc3)c(=O)n12 | -26.6 |
| CCc1nnc(NC(=O)CCC(=O)Nc2ccc(C)cc2)s1 | -20.2 |
| CCN(CC)S(=O)(=O)c1csc(C(=O)NCc2ccccc2)c1 | -5.34 |
| Cc1ccc(OCC(=O)Nc2ccc3c(c2)OCO3)cc1C | 8.46 |

| SMILES | hERG current change (%, negative = inhibition) at 10uM [%] |
| --- | --- |
| CN(Cc1ccccc1)C(=O)COC(=O)C1=NNC(=O)CC1 | -9.88 |
| CCn1c(SCC(=O)NCCOc2ccccc2)nc2ccccc2c1=O | -24.5 |
| CC(=O)Oc1ccc(C(=O)Nc2cccc(NC(=O)c3ccco3)c2)cc1 | 13.5 |
| CC(C)(C)NC(=O)N1CCN(c2nc3ccc(Cl)cc3s2)CC1 | -11.9 |
| CCN(CC)S(=O)(=O)c1ccc2c(c1)N(CC(=O)N1CCC(C(N)=O)CC1)C(=O)CO2 | 23.5 |
| N#CCCN(Cc1ccncc1)C(=S)NC1CC2C=CC1C2 (centres unmarked) | 2.76 |
| CC(=O)CSc1ccc(-c2nc3ccccc3[nH]2)cn1 | -6.93 |
| CCCC(O)(CCC)C(=O)NN1CCCCC1 | -1.58 |
| CCOC(=O)CNC(=O)CSc1ncnc2c1cnn2-c1ccc(OC)cc1 | 0.432 |
| CCCC[C@@H]1CN=C(N)N1CC(C)(C)C | 13.4 |
| Nc1nnnn1/N=C/c1ccco1 | -46.4 |
| CCS(=O)(=O)c1ccc2oc(Nc3cccc(OC)c3)nc2c1 | 9.78 |
| O=C(O)c1cn(-c2ccc(F)c(F)c2)c2c(F)c(F)c(F)c(F)c2c1=O | -0.977 |
| CC12CCC(C(=O)Nc3ccc(SC(F)F)cc3)(CC1=O)C2(C)C (centres unmarked) | -46 |
| COc1cc(/C=C(/C(=O)c2cccs2)c2nc3ccccc3[nH]2)ccc1O | -22.2 |
| CCCCC(Sc1nc(C)c(Cc2ccccc2)c(=O)[nH]1)C(=O)O (centres unmarked) | 30 |
| [Cl-].c1ccc(Cc2cc[n+](Cc3ccccc3)cc2)cc1 | 4.13 |
| CCOc1ccccc1CN1CCC(N2CCC(C(=O)NC3CC3)CC2)CC1 | 1.53 |
| CN1C(=O)C(O)(CC(=O)c2ccc3c(c2)OCO3)c2ccccc21 (centres unmarked) | -5.06 |
| O=C(CSc1nnnn1-c1ccccc1)NC(=O)Nc1ccc2c(c1)OCCO2 | 13.4 |
| COC(=O)c1c(O)ccc(Oc2ccccc2)c1C(=O)OC | 8.07 |
| CCOCc1c(C(=O)Nc2cc(OCC)c(N3CCOCC3)cc2OCC)oc2ccccc12 | 6.09 |
| CCCCCSc1nc2c(cnn2-c2ccccc2)c(=O)[nH]1 | 1.61 |

| SMILES | hERG current change (%, negative = inhibition) at 10uM [%] |
| --- | --- |
| O=C(Cc1c[nH]c2ccccc12)Nc1nc2ccccc2[nH]1 | -16.2 |
| COc1ccc(CNc2nc3nc(C)cc(C)n3n2)cc1 | -0.868 |
| Cc1ccc(C(=O)Nc2cc3c(cc2Cl)OCCCO3)cc1 | 3.17 |
| O=C(NCCc1ccc(C(F)(F)F)cc1)C1CCC(=O)N(CCCN2CCCC2=O)C1 (centres unmarked) | 13.1 |
| Oc1ccc(Cl)cc1C=Nc1ccc2c3c(cccc13)CC2 | 9.08 |
| Cc1cc(NC(=O)c2ccc(Br)c(S(=O)(=O)N3CCCC3)c2)no1 | 0.115 |
| CC1CCC(NC(=O)c2ccc3c(c2)OCO3)CC1 (centres unmarked) | 11.5 |
| CCN(Cc1ccccc1)CC(O)COC(c1ccc(OC)cc1)c1ccc(OC)cc1 (centres unmarked) | -75.1 |
| COc1ccc2c(c1)C(=NNC(=O)c1ccccn1)c1cc(OC)ccc1-2 | 8.44 |
| COCCNC(=S)N(CCc1c(C)[nH]c2ccccc12)Cc1ccco1 | -16.8 |
| O=C(c1ccccc1)c1nn(-c2ccccc2)c2nnc(Cc3ccccc3)c(=O)n12 | -5.58 |
| O=c1cc(CSc2ccc([N+](=O)[O-])cc2)nc2sccn12 | -23.3 |
| C=C(C)c1cccc(C(C)(C)NC(=O)N2CCN(c3ccc(OC)cc3)CC2)c1 | 7.46 |
| COC(=O)C1(Cc2cc(-c3ccc(Cl)cc3)no2)CCN(C(=O)OC(C)(C)C)CC1 | -22.8 |
| Fc1ccccc1Sc1ccccc1CNC1=NCCN1.I | -1.38 |
| O=CN1CCN(S(=O)(=O)c2ccc(Cl)c(C(=O)O)c2)CC1 | -2.45 |
| O=C(Nc1ccccc1)OCc1cn(-c2ccc(Cl)cc2)nn1 | 22.3 |
| CCOC(=O)Nc1cc(C(=O)OC)cc(C(=O)OC)c1 | 8.34 |
| CC(CS(=O)(=O)c1ccc2c(c1)NC(=O)CS2)C(=O)N1CCN(c2cccc(Cl)c2)CC1 (centres unmarked) | -52.1 |
| CC(C)NS(=O)(=O)c1ccc(NC(=O)C(C)OC(=O)CCC(=O)c2cccs2)cc1 (centres unmarked) | 10.3 |
